Source: the supplement of paper PMC8813932
Where a name gives a salt, the structure may show the parent alone. ± gives the standard deviation of the averaged measurements. The list shows a part of the results. Repeats are few or missing, and single values can be far off.

Legend:
Experiment in all cases: log2 surviving fraction relative to plate median (drug vs vehicle, or drug+dl922-947 vs dl922-947 alone); ovarian cancer lines: OVCAR4 is platinum-sensitive while Ov4Cis resists cisplatin and Ov4Carbo carboplatin; higher = more cell survival
Settings in all cases: compound concentration: 10 uM, 192 h
[1] = test system: OVCAR4
[2] = test system: Ov4Carbo
[3] = test system: Ov4Cis
[4] = dl922-947 oncolytic adenovirus co-treatment: MOI 10
[5] = dl922-947 oncolytic adenovirus co-treatment: none

Compound	log2 surviving fraction [1, 4]	log2 surviving fraction [1, 5]	log2 surviving fraction [2, 4]	log2 surviving fraction [2, 5]	log2 surviving fraction [3, 4]	log2 surviving fraction [3, 5]
C#Cc1cccc(Nc2ncnc3cc(OCCOC)c(OCCOC)cc23)c1 [Erlotinib HCl]	0.395 ± 0.58	-3.62 ± 4.5	0.668	-2.43	1.06	0.707
COC(=O)C1=C(C#N)NC(C)=C(C(=O)OC(C)C)C1c1cccc([N+](=O)[O-])c1 (stereo unspecified) [Nilvadipine (ARC029)]	-0.486 ± 0.52	-1.37 ± 0.87	0.23	-1.36	-0.0285	-0.629
CC(N)C12CC3CC(CC(C3)C1)C2 (stereo unspecified) [Rimantadine (Flumadine)]	-0.307 ± 0.78	0.0108 ± 0.11	0.623	-0.524	-0.142	-0.255
CCC1(C)CC(=O)NC(=O)C1 [Bemegride]	-0.16 ± 0.73	0.203 ± 1	-0.0224	-0.538	-0.241	-1.1
O=C(C[S+]([O-])Cc1ccco1)NC/C=C\COc1cc(CN2CCCCC2)ccn1 (stereo unspecified) [Lafutidine]	1.4 ± 0.94	0.814 ± 0.75	0.912	1.05	0.28	0.942
CC#C[C@]1(O)CC[C@H]2[C@@H]3CCC4=CC(=O)CCC4=C3[C@@H](c3ccc(N(C)C)cc3)C[C@@]21C [Mifepristone (Mifeprex)]	-0.399 ± 0.55	-2.19 ± 1.1	0.237	-3.27	-0.386	-2.81
NCCS(=O)(=O)O [Taurine]	-0.137 ± 0.15	-0.694 ± 0.54	2.05	-0.306	-0.146	-0.631
CC(=O)OCC(=O)NCCCOc1cccc(CN2CCCCC2)c1 [Roxatidine acetate HCl]	-0.265 ± 2.1	-0.3395 ± 0.003	0.73	1.42	-0.205	0.0273
CN(C)CCOc1ccc(/C(=C(/CCCl)c2ccccc2)c2ccccc2)cc1 [Toremifene Citrate (Fareston, Acapodene)]	-3.45 ± 1.9	-1.97 ± 0.72	-4.34	-5	-4.76	-3.97
Nc1ncnc2c1ncn2[C@@H]1O[C@H](COP(=O)(O)OP(=O)(O)OP(=O)(O)O)[C@@H](O)[C@H]1O [ATP (Adenosine-Triphosphate)]	-0.118 ± 0.06	0.361 ± 0.9	-0.49	0.139	0.18	0.599
CC[C@H]1OC(=O)[C@H](C)[C@@H](O[C@H]2C[C@@](C)(OC)[C@@H](O)[C@H](C)O2)[C@H](C)[C@@H](O[C@@H]2O[C@H](C)C[C@H](N(C)C)[C@H]2O)[C@](C)(O)C[C@@H](C)[C@@H]2N[C@@H](COCCOC)O[C@H]([C@H]2C)[C@]1(C)O [Dirithromycin]	-0.466 ± 0.37	-0.432 ± 0.49	-1.2	-0.45	0.39	-0.516
O=P1(N(CCCl)CCCl)NCCCO1 (stereo unspecified) [Clafen (Cyclophosphamide)]	0.164 ± 0.21	-2.95 ± 4.8	2.34	1.66	0.26	0.0433
C=C(NC(=O)C(=C)NC(=O)c1csc(C2=N[C@@H]3c4csc(n4)[C@H]4NC(=O)c5csc(n5)[C@H]([C@](C)(O)[C@@H](C)O)NC(=O)[C@H]5CSC(=N5)/C(=C/C)NC(=O)[C@H]([C@@H](C)O)NC(=O)c5csc(n5)[C@]3(CC2)NC(=O)[C@H](C)NC(=O)C(=C)NC(=O)[C@H](C)NC(=O)[C@H]([C@@H](C)CC)N[C@@H]2C=Cc3c([C@H](C)O)cc(nc3[C@H]2O)C(=O)O[C@@H]4C)n1)C(N)=O [Thiostrepton]	-6.174 ± 0.054	-7.66 ± 10	-7.88	-11.1	-6.06	-14.8
CSc1nc2cc(Cl)c(Oc3cccc(Cl)c3Cl)cc2[nH]1 [Triclabendazole]	0.336 ± 0.84	0.521 ± 0.37	-0.972	-1.58	0.788	-1.9
CS(=O)(=O)c1ccc([C@@H](O)[C@@H](CO)NC(=O)C(Cl)Cl)cc1 [Thiamphenicol (Thiophenicol)]	0.538 ± 0.33	-0.707 ± 0.45	-0.264	-2.27	-0.0066	0.335
CC1=C(C(=O)OC(C)C)C(c2cccc([N+](=O)[O-])c2)C(C(=O)OC2CN(C(c3ccccc3)c3ccccc3)C2)=C(N)N1 (stereo unspecified) [Azelnidipine]	0.487 ± 0.6	1.26 ± 0.23	-0.494	1.17	0.0085	1.09
COC1=C(OC)C(=O)C(CCCCCCCCCCO)=C(C)C1=O [Idebenone]	0.0176 ± 0.15	-0.606 ± 1	0.502	-0.00142	0.254	0.598
C#C[C@]1(O)CC[C@H]2[C@@H]3CCC4=CC(=O)CC[C@]4(C)[C@H]3CC[C@@]21C [Ethisterone]	0.336 ± 0.43	0.11 ± 0.71	0.603	-0.846	-0.522	0.914
Oc1ncnc2[nH]ncc12 [Allopurinol (Zyloprim)]	-0.0616 ± 0.77	-0.158 ± 0.12	2.6	0.448	0.368	-0.436
COc1ccc(C[C@@H]2c3cc(OC)c(OC)cc3CC[N@+]2(C)CCC(=O)OCCCCCOC(=O)CC[N@@+]2(C)CCc3cc(OC)c(OC)cc3[C@H]2Cc2ccc(OC)c(OC)c2)cc1OC [Cisatracurium besylate (Nimbex)]	-0.547 ± 0.94	-1.17 ± 0.43	-0.205	-3.02	-0.308	-1.01
Cc1nnc(C(C)C)n1C1C[C@H]2CC[C@@H](C1)N2CC[C@H](NC(=O)C1CCC(F)(F)CC1)c1ccccc1 (stereo in doubt) [Maraviroc]	0.314 ± 0.13	0.954 ± 0.072	-0.628	-0.178	0.71	-0.344
